Measured values reported in patent US9486506B2 (Novo Nordisk A/S, priority 2011, dated 2016).
For at least one compound, name, drawing or mass did not settle the structure. Numbered stars: 1 amine (or outer) side, 2 acyl side, 3 side chain; on linkers, the order of the positions; unused ones are H or OH. Side chains are listed from the residue outwards. Peptide text beside a SMILES is read from it. * marks the point of attachment. C18 diacid = O=C(O)CCCCCCCCCCCCCCCCC(=O)*; γGlu = O=C(O)[C@H](CCC(=O)[*:2])N[*:1]; C14 diacid = O=C(O)CCCCCCCCCCCCC(=O)*; AEEA = NCCOCCOCC(=O)O

Test: Assay (II) ThT fibrillation assay for physical stability
Format: physicochemical
Conditions: pH 7.5

Row | SMILES | ThT assay [Lagtime] [h]
1 | CC(C)C[C@H](NC(=O)[C@H](CC(=O)O)NC(=O)[C@H](CC(C)C)NC(=O)[C@H](Cc1ccc(O)cc1)NC(=O)[C@H](CCCNC(=N)N)NC(=O)[C@H](CO)NC(=O)[C@H](Cc1ccc(O)cc1)NC(=O)[C@H](CC(=O)O)NC(=O)[C@H](CO)NC(=O)[C@@H](NC(=O)[C@H](Cc1ccccc1)NC(=O)[C@@H](NC(=O)CNC(=O)[C@H](CCC(N)=O)NC(=O)[C@H](CO)NC(=O)[C@@H](N)Cc1c[nH]cn1)[C@@H](C)O)[C@@H](C)O)C(=O)N[C@@H](CCCNC(=N)N)C(=O)N[C@@H](CCCNC(=N)N)C(=O)N[C@@H](C)C(=O)N[C@@H](CCC(N)=O)C(=O)N[C@@H](CC(=O)O)C(=O)N[C@@H](Cc1ccccc1)C(=O)N[C@H](C(=O)N[C@@H](CCCCNC(=O)CC[C@H](NC(=O)CC[C@H](NC(=O)COCCOCCNC(=O)COCCOCCNC(=O)CC[C@H](NC(=O)CCCCCCCCCCCCC(=O)O)C(=O)O)C(=O)O)C(=O)O)C(=O)N[C@@H](Cc1c[nH]c2ccccc12)C(=O)N[C@@H](CC(C)C)C(=O)N[C@@H](CC(C)C)C(=O)N[C@@H](CO)C(=O)N[C@H](C(=O)O)[C@@H](C)O)C(C)C [Example 24, N^ε24-[(4S)-4-carboxy-4-[[(4S)-4-carboxy-4-[[2-[2-[2-[[2-[2-[2-[[(4S)-4-carboxy-4-(13-carboxytridecanoylamino)butanoyl]amino]ethoxy]ethoxy]acetyl]amino]ethoxy]ethoxy]acetyl]amino]butanoyl]amino]butanoyl]-[Arg^12,Leu^16,Lys^24,Leu^27,Ser^28]-Glucagon] (H-HSQGTFTSDYSRYLDLRRAQDFVK([γGlu-γGlu-AEEA-AEEA-γGlu-C14 diacid])WLLST-OH) | 26.9
2 | CC(C)C[C@H](NC(=O)[C@H](Cc1c[nH]c2ccccc12)NC(=O)[C@H](CCCCNC(=O)CC[C@H](NC(=O)CC[C@H](NC(=O)COCCOCCNC(=O)COCCOCCNC(=O)CC[C@H](NC(=O)CCCCCCCCCCCCCCCCC(=O)O)C(=O)O)C(=O)O)C(=O)O)NC(=O)[C@@H](NC(=O)[C@H](Cc1ccccc1)NC(=O)[C@H](CC(=O)O)NC(=O)[C@H](CCC(N)=O)NC(=O)[C@H](C)NC(=O)[C@H](CCCNC(=N)N)NC(=O)[C@H](CCCNC(=N)N)NC(=O)[C@@H](NC(=O)[C@H](CC(=O)O)NC(=O)[C@H](CC(C)C)NC(=O)[C@H](Cc1ccc(O)cc1)NC(=O)[C@H](CCCNC(=N)N)NC(=O)[C@H](CO)NC(=O)[C@H](Cc1ccc(O)cc1)NC(=O)[C@H](CC(=O)O)NC(=O)[C@H](CO)NC(=O)[C@@H](NC(=O)[C@H](Cc1ccccc1)NC(=O)[C@@H](NC(=O)CNC(=O)[C@H](CCC(N)=O)NC(=O)[C@H](CO)NC(=O)[C@@H](N)Cc1c[nH]cn1)[C@@H](C)O)[C@@H](C)O)C(C)C)C(C)C)C(=O)N[C@@H](CC(C)C)C(=O)N[C@@H](CO)C(=O)N[C@H](C(=O)O)[C@@H](C)O [Example 21, N^ε24-[(4S)-4-carboxy-4-[[(4S)-4-carboxy-4-[[2-[2-[2-[[2-[2-[2-[[(4S)-4-carboxy-4-(17-carboxyheptadecanoylamino)butanoyl]amino]ethoxy]ethoxy]acetyl]amino]ethoxy]ethoxy]acetyl]amino]butanoyl]amino]butanoyl]-[Arg^12,Val^16,Lys^24,Leu^27,Ser^28]-Glucagon] (H-HSQGTFTSDYSRYLDVRRAQDFVK([γGlu-γGlu-AEEA-AEEA-γGlu-C18 diacid])WLLST-OH) | 6.3
3 | CC(C)C[C@H](NC(=O)[C@H](Cc1ccc(O)cc1)NC(=O)[C@H](CCCNC(=N)N)NC(=O)[C@H](CO)NC(=O)[C@H](Cc1ccc(O)cc1)NC(=O)[C@H](CC(=O)O)NC(=O)[C@H](CO)NC(=O)[C@@H](NC(=O)[C@H](Cc1ccccc1)NC(=O)[C@@H](NC(=O)CNC(=O)[C@H](CCC(N)=O)NC(=O)[C@H](CO)NC(=O)[C@@H](N)Cc1c[nH]cn1)[C@@H](C)O)[C@@H](C)O)C(=O)N[C@@H](CC(=O)O)C(=O)N[C@@H](Cc1ccccc1)C(=O)N[C@@H](CCCNC(=N)N)C(=O)N[C@@H](CCCNC(=N)N)C(=O)N[C@@H](C)C(=O)N[C@@H](CCC(N)=O)C(=O)N[C@@H](CC(=O)O)C(=O)N[C@@H](Cc1ccccc1)C(=O)N[C@H](C(=O)N[C@@H](CCCCNC(=O)CC[C@H](NC(=O)CC[C@H](NC(=O)COCCOCCNC(=O)COCCOCCNC(=O)CC[C@H](NC(=O)CCCCCCCCCCCCCCCCC(=O)O)C(=O)O)C(=O)O)C(=O)O)C(=O)N[C@@H](Cc1c[nH]c2ccccc12)C(=O)N[C@@H](CC(C)C)C(=O)N[C@@H](CC(C)C)C(=O)N[C@@H](CO)C(=O)N[C@H](C(=O)O)[C@@H](C)O)C(C)C [Example 17, N^ε24-[(4S)-4-carboxy-4-[[(4S)-4-carboxy-4-[[2-[2-[2-[[2-[2-[2-[[(4S)-4-carboxy-4-(17-carboxyheptadecanoylamino)butanoyl]amino]ethoxy]ethoxy]acetyl]amino]ethoxy]ethoxy]acetyl]amino]butanoyl]amino]butanoyl]-[Arg^12,Phe^16,Lys^24,Leu^27,Ser^28]-Glucagon] (H-HSQGTFTSDYSRYLDFRRAQDFVK([γGlu-γGlu-AEEA-AEEA-γGlu-C18 diacid])WLLST-OH) | 12
4 | CC(C)C[C@H](NC(=O)[C@H](Cc1ccc(O)cc1)NC(=O)[C@H](CCCCN)NC(=O)[C@H](CO)NC(=O)[C@H](Cc1ccc(O)cc1)NC(=O)[C@H](CC(=O)O)NC(=O)[C@H](CO)NC(=O)[C@@H](NC(=O)[C@H](Cc1ccccc1)NC(=O)[C@@H](NC(=O)CNC(=O)[C@H](Cc1c[nH]cn1)NC(=O)[C@H](CO)NC(=O)[C@@H](N)Cc1c[nH]cn1)[C@@H](C)O)[C@@H](C)O)C(=O)N[C@@H](CC(=O)O)C(=O)N[C@@H](CO)C(=O)N[C@@H](CCCNC(=N)N)C(=O)N[C@@H](CCCNC(=N)N)C(=O)N[C@@H](C)C(=O)N[C@@H](CCCCN)C(=O)N[C@@H](CC(=O)O)C(=O)N[C@@H](Cc1ccccc1)C(=O)N[C@H](C(=O)N[C@@H](CCCCNC(=O)CC[C@H](NC(=O)CC[C@H](NC(=O)COCCOCCNC(=O)COCCOCCNC(=O)CC[C@H](NC(=O)CCCCCCCCCCCCCCCCC(=O)O)C(=O)O)C(=O)O)C(=O)O)C(=O)N[C@@H](Cc1c[nH]c2ccccc12)C(=O)N[C@@H](CC(C)C)C(=O)N[C@@H](CC(C)C)C(=O)N[C@@H](CO)C(=O)N[C@H](C(=O)O)[C@@H](C)O)C(C)C [Example 3, N^ε24-[(4S)-4-carboxy-4-[[(4S)-4-carboxy-4-[[2-[2-[2-[[2-[2-[2-[[(4S)-4-carboxy-4-(17-carboxyheptadecanoylamino)butanoyl]amino]ethoxy]ethoxy]acetyl]amino]ethoxy]ethoxy]acetyl]amino]butanoyl]amino]butanoyl]-[His^3,Lys^20,Lys^24,Leu^27,Ser^28]-Glucagon] (H-HSHGTFTSDYSKYLDSRRAKDFVK([γGlu-γGlu-AEEA-AEEA-γGlu-C18 diacid])WLLST-OH) | 45
5 | CC(C)C[C@H](NC(=O)[C@H](CC(=O)O)NC(=O)[C@H](CC(C)C)NC(=O)[C@H](Cc1ccc(O)cc1)NC(=O)[C@H](CCCCN)NC(=O)[C@H](CO)NC(=O)[C@H](Cc1ccc(O)cc1)NC(=O)[C@H](CC(=O)O)NC(=O)[C@H](CO)NC(=O)[C@@H](NC(=O)[C@H](Cc1ccccc1)NC(=O)[C@@H](NC(=O)CNC(=O)[C@H](CCC(N)=O)NC(=O)[C@H](CO)NC(=O)[C@@H](N)Cc1c[nH]cn1)[C@@H](C)O)[C@@H](C)O)C(=O)N[C@@H](CCCNC(=N)N)C(=O)N[C@@H](CCCNC(=N)N)C(=O)N[C@@H](C)C(=O)N[C@@H](CCC(N)=O)C(=O)N[C@@H](CC(=O)O)C(=O)N[C@@H](Cc1ccccc1)C(=O)N[C@H](C(=O)N[C@@H](CCCCNC(=O)CC[C@H](NC(=O)CC[C@H](NC(=O)CC[C@H](NC(=O)CC[C@H](NC(=O)CCCCCCCCCCCCCCCCC(=O)O)C(=O)O)C(=O)O)C(=O)O)C(=O)O)C(=O)N[C@@H](Cc1c[nH]c2ccccc12)C(=O)N[C@@H](CC(C)C)C(=O)N[C@@H](CC(C)C)C(=O)N[C@@H](CO)C(=O)N[C@H](C(=O)O)[C@@H](C)O)C(C)C [Example 80, N^ε24-[(4S)-4-carboxy-4-[[(4S)-4-carboxy-4-[[(4S)-4-carboxy-4-[[(4S)-4-carboxy-4-(17-carboxyheptadecanoylamino)butanoyl]amino]butanoyl]amino]butanoyl]amino]butanoyl]-[Leu16,Lys24,Leu27,Ser28]-Glucagon] | 45
6 | CC(C)C[C@H](NC(=O)[C@H](CC(=O)O)NC(=O)[C@H](CC(C)C)NC(=O)[C@H](Cc1ccc(O)cc1)NC(=O)[C@H](CCCNC(=N)N)NC(=O)[C@H](CO)NC(=O)[C@H](Cc1ccc(O)cc1)NC(=O)[C@H](CC(=O)O)NC(=O)[C@H](CO)NC(=O)[C@@H](NC(=O)[C@H](Cc1ccccc1)NC(=O)[C@@H](NC(=O)CNC(=O)[C@H](CCC(N)=O)NC(=O)[C@H](CO)NC(=O)[C@@H](N)Cc1c[nH]cn1)[C@@H](C)O)[C@@H](C)O)C(=O)N[C@@H](CCCNC(=N)N)C(=O)N[C@@H](CCCNC(=N)N)C(=O)N[C@@H](C)C(=O)N[C@@H](CCC(N)=O)C(=O)N[C@@H](CCC(=O)O)C(=O)N[C@@H](Cc1ccccc1)C(=O)N[C@H](C(=O)N[C@@H](CCCCNC(=O)CC[C@H](NC(=O)CC[C@H](NC(=O)COCCOCCNC(=O)COCCOCCNC(=O)CC[C@H](NC(=O)CCCCCCCCCCCCCCCCC(=O)O)C(=O)O)C(=O)O)C(=O)O)C(=O)N[C@@H](Cc1c[nH]c2ccccc12)C(=O)N[C@@H](CC(C)C)C(=O)N[C@@H](CC(C)C)C(=O)N[C@@H](CO)C(=O)N[C@H](C(=O)O)[C@@H](C)O)C(C)C [Example 46, N^ε24-[(4S)-4-carboxy-4-[[(4S)-4-carboxy-4-[[2-[2-[2-[[2-[2-[2-[[(4S)-4-carboxy-4-(17-carboxyheptadecanoylamino)butanoyl]amino]ethoxy]ethoxy]acetyl]amino]ethoxy]ethoxy]acetyl]amino]butanoyl]amino]butanoyl]-[Arg12,Leu16,Glu21,Lys24,Leu27,Ser28]-Glucagon] (H-HSQGTFTSDYSRYLDLRRAQEFVK([γGlu-γGlu-AEEA-AEEA-γGlu-C18 diacid])WLLST-OH) | 7
